{"source": "PubChem BioAssay AID686978", "about": "(National Center for Advancing Translational Sciences (NCATS), 2013)", "note": "The campaign covered roughly 420,000 compounds. About 64,000 (15%) were called active. Inconclusive means that the source gave no clear call. Such entries were picked first, then a sample of the others. Calls come from the whole dose curve; as a rule, active = well fitted inhibition curve with a large enough effect; inconclusive = small, poorly fitted or top-dose-only effect; inactive = flat fitted curve, though single readings scatter. No potency is given beside an inconclusive call; the fits are too rough. Potency is the fitted concentration of half-maximal effect; tags give direction and shape of the fitted curve."}
{"experiment": "qHTS for Inhibitors of human tyrosyl-DNA phosphodiesterase 1 (TDP1): qHTS in cells in absence of CPT; note: nearly all actives have a fitted effect of over 55% in size", "details": "DT40 Tdp1-/- hTDP1 cells, no CPT, ATP luminescence, 48 h; series mostly up to 46.2 µM", "summary_of_the_method": "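No-CPT arm: Tdp1-/-;hTDP1 DT40 cells (400/well) plus compounds, incubated ≥48 hr at 37 °C. Readout CellTiter-Glo luminescence.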"}
{"compound": "O=c1[nH]c2ccc(S(=O)(=O)N3CCN(C4CCCCC4)CC3)cc2[nH]c1=O", "Potency": "inactive"}
{"compound": "Cc1cc(C)cc(N(C(=O)CCC(=O)Nc2cc(C)on2)C(C(=O)NC2CCCC2)c2ccco2)c1", "note": "(centres undefined)", "Potency": "active: 20.6 µM"}
{"compound": "CCN(CC)S(=O)(=O)c1ccc(N2CCCC2)c(NC(=O)Cc2ccccc2)c1", "Potency": "active: 14.6 µM"}
{"compound": "CCc1ccc2[nH]c3nc(SCc4nnc(-c5ccc(C)cc5)o4)nnc3c2c1", "Potency": "inconclusive [inhibitor, single point]"}
{"compound": "COC(=O)Cc1c[nH]c2cccc(OCC(O)CN(Cc3ccccc3)C(C)C)c12", "note": "(centres undefined)", "Potency": "inconclusive [inhibitor, single point]"}
{"compound": "CSc1nsc(SC)c1C(=O)Nc1ccc(C(C)(C)C)cc1", "Potency": "inconclusive [inhibitor, single point]"}
{"compound": "O=C1c2ccccc2C(c2nnnn2Cc2ccccc2)N1CCCN1CCOCC1", "note": "(centres undefined)", "Potency": "inactive"}
{"compound": "COc1ccc(C2(C(=O)Nc3ccc(S(N)(=O)=O)cc3)CCCC2)cc1", "Potency": "inconclusive [inhibitor, single point]"}
{"compound": "Cc1ccc(CNC(=O)CSc2c3c(nc4cc(Cl)ccc24)CCCC3)o1", "Potency": "inconclusive [inhibitor, single point]"}
{"compound": "NC(=O)CC(NC(=O)Cc1ccc(Cl)cc1)c1ccc(N2CCN(c3ccccn3)CC2)c([N+](=O)[O-])c1", "note": "(centres undefined)", "Potency": "inconclusive [inhibitor, single point]"}
{"compound": "CC(=O)c1ccc(N2CCN(C(C)C(=O)NC3CCCc4ccccc43)CC2)cc1", "note": "(centres undefined)", "Potency": "inconclusive [inhibitor, single point]"}
{"compound": "CCN(CC)S(=O)(=O)c1cc(C(=O)NC2CCCCC2)ccc1C", "Potency": "inconclusive [inhibitor, partial curve]"}
{"compound": "CCn1nc(C)c(/C=N/NC(=O)c2ccc3c(c2)c(C)c(C)n3Cc2ccccc2)c1C", "Potency": "active: 10.3 µM"}
{"compound": "Cc1ccc(/C=N/Nc2ncnc3nc[nH]c23)cc1", "Potency": "inactive"}
{"compound": "COc1cc(C(=O)NNC(=S)Nc2ccc(S(N)(=O)=O)cc2)cc(OC)c1OC", "Potency": "inactive"}
{"compound": "COc1cc(C(=O)NCC2(c3ccccc3)CCCC2)ccc1OC(C)C", "Potency": "active: 10.3 µM"}
{"compound": "CCOC(=O)C1CCN(S(=O)(=O)c2ccc3c(c2)N(C(C)=O)CCO3)CC1", "Potency": "inactive"}
{"compound": "Cc1ccc(Nc2c(-c3ccncc3)nc3ccc(C)cn23)cc1", "Potency": "inconclusive [inhibitor, single point]"}
{"compound": "Cc1cc(NC(=O)C2CCCCC2)nc2c1c(=O)oc1ccccc12", "Potency": "inconclusive [inhibitor, partial curve, poor fit]"}
